From the supplement of paper PMC10338343
± gives the standard deviation. Whole data set: some 5,500 sequences, median “pre-steady-state target cleavage rate” near 0.1, cut for the highest 2% near 0.64. The list shows a part of the results, in another mix than the full data.

Tested on: MIWI (PIWIL1) piRISC loaded with piRNA #2 (30 nt)
Experiment: pre-steady-state target cleavage rate (min^-1); MIWI and MILI are mouse PIWI proteins and EfPiwi is from a freshwater sponge; tags in brackets are library labels; higher = faster piRNA-guided slicing of the target
Settings: guide: piRNA #2 5'p-UUAGGUAACCCAGUAGAUCCAGAGGAAUUC; auxiliary factor: 500 nM mouse GTSF1
Experimental: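 Cleave-'n-Seq: a library of target RNAs (target site embedded in constant flanks, ACAGCATTCCGCGTTAGTGATATCCG... 5' flank; DNA-blocked outside the site) at 0.1 nM was incubated with 1 nM active mouse MILI or MIWI piRISC (synthetic 5'-monophosphorylated piRNA guide) with or without 500 nM mouse GTSF1 at 33 °C for 1 min to 16 h. Uncleaved targets were sequenced and normalised to non-target controls, and the pooled three trials were fitted to a burst-and-steady-state model to give the pre-steady-state cleavage rate (min^-1; k3 is constrained to at most 1e-4). Sequence is the target site only; target names encode pairing extent (gX:gY) and contiguous / 1-mismatch / 2-mismatch / bulge geometry. Fits with R² ≤ 0 are excluded.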

Sequence | pre-steady-state target cleavage rate
CUUAUCCUCAGGAUGUACUGGGUUACCUAA | 0.448 ± 0.051
GAAUUCCUCUGGAUGUACUGGGUUACCUUA | 0.314 ± 0.048
GAAUCUCCUCUGGAUCUACUGGGUUACCUAA | 0.291 ± 0.054
UAAUUCCUCUGGAUCUACUGGGUUACCUAA | 0.348 ± 0.067
CUUAAGGUCUGGAUCUACUCGGUUACGUAA | 0.0622 ± 0.032
CUAUUCCUCUGGAUCUACUCGGUUAGCUAA | 0.00902 ± 0.0058
CAAUUCCUCUGGAUCUACUGGGUUACGAAA | 0.239 ± 0.064
CUUAAGCUCUGGGAUCUACUGGGUUACCUAA | 0.229 ± 0.016
GAUUUCCACUGGAUCUACUGGGUUACCUAA | 0.348 ± 0.044
CUUAACCUCUGCAUGUACUGGGUUACCUAA | 0.417 ± 0.029
CAAUUCCUCUGGAUGCUACUGGGUUACCUAA | 0.412 ± 0.047
CUUUUCCUCUGGAUCUACUGGGUUACCUA | 0.506 ± 0.07
GAAUUCCUCUGCAUCUACUGGCUUACCUAA | 0.104 ± 0.013
GAAUUCCUGUGGAUCUACUGGGUAACCUAA | 0.155 ± 0.029
CUUAAGGACUGGAUCUACUGGGUUACCCUAA | 0.0294 ± 0.025
CUUAAGGUCUGGUUGUACUGGGUUACCUAA | 0.2 ± 0.039
CUUUUCCUCUGGAUCAACUGGGUUACCUUA | 0.281 ± 0.035
CUUAAGGUCCUGGAUCUACUGGGUUACCUAA | 0.0822 ± 0.012
CUUAAGGUCUGGAUCUACUGGGAAACCUAA | 0.0281 ± 0.012
CAAUUCCUCUGGAUCUACUGGGUUUACCUAA | 0.625 ± 0.074
CUUAUCCUCUGGAACUACUGCGUUACCUAA | 0.412 ± 0.038
CUUAAGGACUUGAUCUACUGGGUUACCUAA | 0.0767 ± 0.028
CAAUUCCUCUCGAACUACUGGGUUACCUAA | 0.57 ± 0.059
CUUAACCUCUGGAUCUACUCGGUUACCAAA | 0.0543 ± 0.015
GAAUUUCUCUGGAUCUACUGGGUUACCUAA | 0.134 ± 0.038

Sequence | pre-steady-state target cleavage rate
CAGUUCCUCUGGAUCUACUGGGUUACCUAA | 0.382 ± 0.053
CAAUUCCUCUGGAUCAACUGGGUUACCUUA | 0.438 ± 0.067
CUUAAGCUCUGGAUUUACUGGGUUACCUAA | 0.167 ± 0.028
CUUUUCCUCAGGAUCUACUGGGAUACCUAA | 0.381 ± 0.044
CUAUUCCUCUGGAUCCUACUGGGUUACCUAA | 0.188 ± 0.039
CUUUUCCUCUGGAUCUAGUGGGUUACCAAA | 0.0844 ± 0.011
CUAUUCCUCUGGAACUACUGGGUAACCUAA | 0.178 ± 0.028
GUAUUCCUCUGGAUGUACUGGGUUACCUAA | 0.0788 ± 0.031
CUUUUCCUCUGGAUCUACUGGGAUUACCUAA | 0.153 ± 0.029
CAUUUCCUCUGGAUCUACUGCGUUACCUAA | 0.519 ± 0.064
CUUAAGGAGUGGUUCUACUGGGUUAGCUAA | 0.00727 ± 0.0032
CUUAAGGUCUGGAUCUACUCGGUUACCUUA | 0.0171 ± 0.011
GAAUUCCUCUGGAUCUACUAGGUUACCUAA | 0.293 ± 0.056
CUAUACCUCUGGAUCUACUGGGUUACCAAA | 0.548 ± 0.067
CUAUUCCUCUGGAUCUACUGGGUAUGCUAA | 0.0126 ± 0.0045
CUUAAGCUCUGGAUCUACUGGGUUGCCUAA | 0.0696 ± 0.0075
CUUAAGGUCUGGAUCUACUGGCUUUCCUAA | 0.0117 ± 0.0048
CUUAAGGAGACCUACUACUGUGUUACCUAA | 0.00865 ± 0.0031
CAUUUCCUCUGGAUCUACUGGCUUACCUAA | 0.106 ± 0.02
CAAUUCGUCUGGAUCUACUGGGUAACCUAA | 0.187 ± 0.041
CUUAAGCACUGCAUCUACUGGGUUACCUAA | 0.243 ± 0.022
CUUUUCCUCUGGAUCAUCUGGGUUACCUAA | 0.259 ± 0.027
CUUAACCUCUGGAUCUACUGGGAAACCUAA | 0.0935 ± 0.015
CUAUUCCACUGGAACUACUGGGUUACCUAA | 0.275 ± 0.032
CUAUUCCUCUGCAUCUACUGCGUUACCUAA | 0.654 ± 0.047

Sequence | pre-steady-state target cleavage rate
CUAUUCCUCUCGAUCUUCUGGGUUACCUAA | 0.803 ± 0.07
CUUAACCUCUGGAUCUACUGGGUAAGCUAA | 0.05 ± 0.0099
CUUAAGGAGUCGGAUCUACUGGGUUACCUAA | 0.0344 ± 0.023
CUUAAGGAGACCUAGAUCUGGGAUACCUAA | < 0.0001
CUAUUCCUAUGGAUCUACUGGGUUACCUAA | 0.499 ± 0.044
CUUAUCCUCUGGAUCUACUCGCUUACCUAA | 0.00398 ± 0.0038
CUUAAGGUCUGGAUCUACUGUGUUACCUAA | 0.312 ± 0.071
GAAUUCCUCUGGAUCAACUGGGUAACCUAA | 0.137 ± 0.03
CUAUUCCUCUGGAUCUACACCGUUACCUAA | 0.0916 ± 0.011
CUAUUCCUCUGGAUCUAGUGGGUUUCCUAA | 0.0884 ± 0.017
CUUAACCUCUGGAUCUACUGGGUUACCCAA | 0.0278 ± 0.0071
GAAUUCCUCACCAUCUACUGGGUUACCUAA | 0.455 ± 0.051
GAAUACCUCUGGAUCUACUGGGUUACCAAA | 0.344 ± 0.053
GAAUUCUUCUGGAUCUACUGGGUUACCUAA | 0.38 ± 0.05
CUUAUCCUCUGGAUUACUGGGUUACCUAA | 0.481 ± 0.04
CUUAACCUCUAGAUCUACUGGGUUACCUAA | 0.472 ± 0.035
CUUUUCCUCUGGAUGUACUGGCUUACCUAA | 0.0998 ± 0.021
CUUAAGGAGUGGAUCUCCUGGGUUACCUAA | 0.0118 ± 0.005
GAAUUACCUCUGGAUCUACUGGGUUACCUAA | 0.193 ± 0.054
CUUUUCCUCUGGAUGCUACUGGGUUACCUAA | 0.396 ± 0.043
CUUUUCCUCUGGAUCUACUUGGUUACCUAA | 0.00606 ± 0.0042
CUUAAGGACAGGAACUACUGGGUUACCUAA | 0.0387 ± 0.032
GAAUUCCUCUCCUUCUACUGGGUUACCUAA | 0.781 ± 0.06
